# The list shows a part of the results.
# Legend:
# Assay in all cases: glycan array binding signal (z-score within array); higher = stronger binding
# Settings in all cases: glycan notation: IUPAC condensed, linker removed
# Fuc(a1-2)Gal = biological target: Fuc(a1-2)Gal
# In short: (§1)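 From the Consortium for Functional Glycomics database, 3228 arrays were curated, keeping only those whose protein sequence was available. Binding is given as a within-array Z-score averaged across arrays sharing a protein sequence and across linkers. Negative Z-scores can be read as non-binding.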
# Fuc(a1-2)Gal(b1-3)GalNAc = biological target: Fuc(a1-2)Gal(b1-3)GalNAc
# In short: as §1
# [1] = biological target: Fuc(a1-2)Gal(b1-3)GalNAc(a1-3)[Fuc(a1-2)]Gal(b1-4)Glc
# In short: as §1
# [2] = biological target: Fuc(a1-2)Gal(b1-3)GalNAc(a1-3)[Fuc(a1-2)]Gal(b1-4)GlcNAc
# In short: as §1
# [3] = biological target: Fuc(a1-2)Gal(b1-3)GalNAc(b1-3)Gal
# In short: as §1
# [4] = biological target: Fuc(a1-2)Gal(b1-3)GalNAc(b1-3)Gal(a1-4)Gal(b1-4)Glc
# In short: as §1
# [5] = biological target: Fuc(a1-2)Gal(b1-3)GalNAc(b1-4)[Neu5Ac(a2-3)]Gal(b1-4)Glc
# In short: as §1
# Fuc(a1-2)Gal(b1-3)GlcNAc = biological target: Fuc(a1-2)Gal(b1-3)GlcNAc
# In short: as §1
# [6] = biological target: Fuc(a1-2)Gal(b1-3)GlcNAc(b1-2)Man(a1-3)[Fuc(a1-2)Gal(b1-3)GlcNAc(b1-2)Man(a1-6)]Man(b1-4)GlcNAc(b1-4)GlcNAc
# In short: as §1
# [7] = biological target: Fuc(a1-2)Gal(b1-3)GlcNAc(b1-3)Gal(b1-4)Glc
# In short: as §1
# [8] = biological target: Fuc(a1-2)Gal(b1-3)GlcNAc(b1-3)[Fuc(a1-3)[Gal(b1-4)]GlcNAc(b1-6)]Gal(b1-4)Glc
# In short: as §1
# [9] = biological target: Fuc(a1-2)Gal(b1-3)[Fuc(a1-4)]GlcNAc
# In short: as §1
# [10] = biological target: Fuc(a1-2)Gal(b1-3)[Fuc(a1-4)]GlcNAc(b1-2)Man(a1-3)[Fuc(a1-2)Gal(b1-3)[Fuc(a1-4)]GlcNAc(b1-2)Man(a1-6)]Man(b1-4)GlcNAc(b1-4)GlcNAc
# In short: as §1
# [11] = biological target: Fuc(a1-2)Gal(b1-3)[Fuc(a1-4)]GlcNAc(b1-3)[Fuc(a1-3)[Gal(b1-4)]GlcNAc(b1-6)]Gal(b1-4)Glc
# In short: as §1
# [12] = biological target: Fuc(a1-2)Gal(b1-3)[Fuc(a1-4)]GlcNAc(b1-3)[Gal(b1-4)GlcNAc(b1-6)]Gal(b1-4)Glc
# In short: as §1
# Fuc(a1-2)Gal(b1-4)Glc = biological target: Fuc(a1-2)Gal(b1-4)Glc
# In short: as §1
# Fuc(a1-2)Gal(b1-4)Glc6S = biological target: Fuc(a1-2)Gal(b1-4)Glc6S
# In short: as §1
# Fuc(a1-2)Gal(b1-4)GlcNAc = biological target: Fuc(a1-2)Gal(b1-4)GlcNAc
# In short: as §1
# [13] = biological target: Fuc(a1-2)Gal(b1-4)GlcNAc(b1-2)Man(a1-3)[Fuc(a1-2)Gal(b1-4)GlcNAc(b1-2)Man(a1-6)]Man(b1-4)GlcNAc(b1-4)GlcNAc
# In short: as §1
# [14] = biological target: Fuc(a1-2)Gal(b1-4)GlcNAc(b1-3)Gal(b1-4)GlcNAc
# In short: as §1
# [15] = biological target: Fuc(a1-2)Gal(b1-4)GlcNAc(b1-3)Gal(b1-4)GlcNAc(b1-3)Gal(b1-4)GlcNAc
# In short: as §1
# [16] = biological target: Fuc(a1-2)Gal(b1-4)GlcNAc(b1-3)GalNAc
# In short: as §1
# [17] = biological target: Fuc(a1-2)Gal(b1-4)GlcNAc6S
# In short: as §1
# [18] = biological target: Fuc(a1-2)Gal(b1-4)[Fuc(a1-3)]GlcNAc
# In short: as §1
# [19] = biological target: Fuc(a1-2)Gal(b1-4)[Fuc(a1-3)]GlcNAc(b1-2)Man(a1-3)[Fuc(a1-2)Gal(b1-4)[Fuc(a1-3)]GlcNAc(b1-2)Man(a1-6)]Man(b1-4)GlcNAc(b1-4)GlcNAc
# In short: as §1
# [20] = biological target: Fuc(a1-2)Gal(b1-4)[Fuc(a1-3)]GlcNAc(b1-3)Gal(b1-4)[Fuc(a1-3)]GlcNAc
# In short: as §1
# [21] = biological target: Fuc(a1-2)Gal(b1-4)[Fuc(a1-3)]GlcNAc(b1-3)Gal(b1-4)[Fuc(a1-3)]GlcNAc(b1-3)Gal(b1-4)[Fuc(a1-3)]GlcNAc
# In short: as §1
# Fuc(a1-2)Gal6S(b1-4)Glc = biological target: Fuc(a1-2)Gal6S(b1-4)Glc
# In short: as §1
# [22] = biological target: Fuc(a1-2)Gal6S(b1-4)Glc6S
# In short: as §1
# [23] = biological target: Fuc(a1-2)Gal6S(b1-4)GlcNAc
# In short: as §1
# Fuc(a1-2)[Gal(a1-3)]Gal = biological target: Fuc(a1-2)[Gal(a1-3)]Gal
# In short: as §1
# [24] = biological target: Fuc(a1-2)[Gal(a1-3)]Gal(b1-3)GlcNAc
# In short: as §1
# [25] = biological target: Fuc(a1-2)[Gal(a1-3)]Gal(b1-3)GlcNAc(b1-2)Man(a1-3)[Fuc(a1-2)[Gal(a1-3)]Gal(b1-3)GlcNAc(b1-2)Man(a1-6)]Man(b1-4)GlcNAc(b1-4)GlcNAc
# In short: as §1
# [26] = biological target: Fuc(a1-2)[Gal(a1-3)]Gal(b1-4)Glc
# In short: as §1
# [27] = biological target: Fuc(a1-2)[Gal(a1-3)]Gal(b1-4)GlcNAc
# In short: as §1
# [28] = biological target: Fuc(a1-2)[Gal(a1-3)]Gal(b1-4)GlcNAc(b1-2)Man(a1-3)[Fuc(a1-2)[Gal(a1-3)]Gal(b1-4)GlcNAc(b1-2)Man(a1-6)]Man(b1-4)GlcNAc(b1-4)GlcNAc
# In short: as §1
# [29] = biological target: Fuc(a1-2)[Gal(a1-3)]Gal(b1-4)[Fuc(a1-3)]GlcNAc
# In short: as §1
# [30] = biological target: Fuc(a1-2)[Gal(a1-4)]Gal(b1-4)GlcNAc
# In short: as §1
# [31] = biological target: Fuc(a1-2)[GalNAc(a1-3)]Gal
# In short: as §1
# [32] = biological target: Fuc(a1-2)[GalNAc(a1-3)]Gal(b1-3)GalNAc(a1-3)[Fuc(a1-2)]Gal(b1-4)GlcNAc
# In short: as §1
# [33] = biological target: Fuc(a1-2)[GalNAc(a1-3)]Gal(b1-3)GlcNAc
# In short: as §1
# [34] = biological target: Fuc(a1-2)[GalNAc(a1-3)]Gal(b1-3)GlcNAc(b1-2)Man(a1-3)[Fuc(a1-2)[GalNAc(a1-3)]Gal(b1-3)GlcNAc(b1-2)Man(a1-6)]Man(b1-4)GlcNAc(b1-4)GlcNAc
# In short: as §1
# [35] = biological target: Fuc(a1-2)[GalNAc(a1-3)]Gal(b1-4)Glc
# In short: as §1
# [36] = biological target: Fuc(a1-2)[GalNAc(a1-3)]Gal(b1-4)GlcNAc
# In short: as §1
# [37] = biological target: Fuc(a1-2)[GalNAc(a1-3)]Gal(b1-4)GlcNAc(b1-2)Man(a1-3)[Fuc(a1-2)[GalNAc(a1-3)]Gal(b1-4)GlcNAc(b1-2)Man(a1-6)]Man(b1-4)GlcNAc(b1-4)GlcNAc
# In short: as §1
# [38] = biological target: Fuc(a1-2)[GalNAc(a1-3)]Gal(b1-4)GlcNAc(b1-3)Gal(b1-4)GlcNAc
# In short: as §1
# [39] = biological target: Fuc(a1-2)[GalNAc(a1-3)]Gal(b1-4)GlcNAc(b1-3)Gal(b1-4)GlcNAc(b1-3)Gal(b1-4)GlcNAc
# In short: as §1
# [40] = biological target: Fuc(a1-2)[GalNAc(a1-3)]Gal(b1-4)[Fuc(a1-3)]GlcNAc
# In short: as §1
# [41] = biological target: Fuc(a1-2)[GalNAc(a1-4)]Gal(b1-4)GlcNAc
# In short: as §1
# [42] = biological target: Fuc(a1-2)[GalNAc(b1-3)]Gal
# In short: as §1
# Fuc(a1-3)GlcNAc = biological target: Fuc(a1-3)GlcNAc
# In short: as §1
# [43] = biological target: Fuc(a1-3)[Gal(b1-4)]Glc6S
# In short: as §1
# [44] = biological target: Fuc(a1-3)[Gal(b1-4)]GlcNAc
# In short: as §1
# [45] = biological target: Fuc(a1-3)[Gal(b1-4)]GlcNAc(b1-2)Man(a1-3)[Fuc(a1-3)[Gal(b1-4)]GlcNAc(b1-2)Man(a1-6)]Man(b1-4)GlcNAc(b1-4)GlcNAc
# In short: as §1
# [46] = biological target: Fuc(a1-3)[Gal(b1-4)]GlcNAc(b1-3)Gal(b1-3)[Fuc(a1-4)]GlcNAc
# In short: as §1
# [47] = biological target: Fuc(a1-3)[Gal(b1-4)]GlcNAc(b1-3)GalNAc
# In short: as §1
# [48] = biological target: Fuc(a1-3)[Gal(b1-4)]GlcNAc(b1-4)Gal(b1-4)[Fuc(a1-3)]GlcNAc
# In short: as §1
# [49] = biological target: Fuc(a1-3)[Gal(b1-4)]GlcNAc(b1-4)Gal(b1-4)[Fuc(a1-3)]GlcNAc(b1-4)Gal(b1-4)[Fuc(a1-3)]GlcNAc
# In short: as §1
# [50] = biological target: Fuc(a1-3)[Gal(b1-4)]GlcNAc(b1-6)[Gal(b1-3)GlcNAc(b1-3)]Gal(b1-4)Glc
# In short: as §1
# [51] = biological target: Fuc(a1-3)[Gal(b1-4)]GlcNAc6S
# In short: as §1
binder,measurement,setting,value
"Gal 3 (Homo sapiens), P17931 (protein) MADNFSLHDALSGSGNPNPQGWPGAWGNQPAGAGGYPGASYPGAYPGQAPPGAYPGQAPPGAYHGAPGAYPGAPAPGVYPGPPSGPGAYPSSGQPSAPGAYPATGPYGAPAGPLIVPYNLPLPGGVVPRMLITILGTVKPNANILDFQRGNDVAFHFNPRFNENNRRVIVCNTKLDNNWGREERQSVFPFESGKPFKIQVLVEPDHFKVAVNDAHLLQYNHRVKKLNEISKLGISGDIDLTSASYTMI",glycan array binding signal (z-score),Fuc(a1-2)Gal,-0.39
same,glycan array binding signal (z-score),Fuc(a1-2)Gal(b1-3)GalNAc,-0.386
same,glycan array binding signal (z-score),[1],-0.389
same,glycan array binding signal (z-score),[2],0.713
same,glycan array binding signal (z-score),[3],-0.385
same,glycan array binding signal (z-score),[4],-0.387
same,glycan array binding signal (z-score),[5],-0.39
same,glycan array binding signal (z-score),Fuc(a1-2)Gal(b1-3)GlcNAc,0.228
same,glycan array binding signal (z-score),[6],-0.192
same,glycan array binding signal (z-score),[7],1.9
same,glycan array binding signal (z-score),[8],-0.332
same,glycan array binding signal (z-score),[9],-0.391
same,glycan array binding signal (z-score),[10],-0.387
same,glycan array binding signal (z-score),[11],-0.384
same,glycan array binding signal (z-score),[12],-0.331
same,glycan array binding signal (z-score),Fuc(a1-2)Gal(b1-4)Glc,-0.318
same,glycan array binding signal (z-score),Fuc(a1-2)Gal(b1-4)Glc6S,-0.385
same,glycan array binding signal (z-score),Fuc(a1-2)Gal(b1-4)GlcNAc,0.024
same,glycan array binding signal (z-score),[13],2.21
same,glycan array binding signal (z-score),[14],3.22
same,glycan array binding signal (z-score),[15],3.62
same,glycan array binding signal (z-score),[16],-0.382
same,glycan array binding signal (z-score),[17],0.333
same,glycan array binding signal (z-score),[18],-0.379
same,glycan array binding signal (z-score),[19],-0.384
same,glycan array binding signal (z-score),[20],-0.384
same,glycan array binding signal (z-score),[21],-0.387
same,glycan array binding signal (z-score),Fuc(a1-2)Gal6S(b1-4)Glc,-0.392
same,glycan array binding signal (z-score),[22],-0.388
same,glycan array binding signal (z-score),[23],-0.388
same,glycan array binding signal (z-score),Fuc(a1-2)[Gal(a1-3)]Gal,-0.389
same,glycan array binding signal (z-score),[24],2.06
same,glycan array binding signal (z-score),[25],3.84
same,glycan array binding signal (z-score),[26],1.61
same,glycan array binding signal (z-score),[27],2.5
same,glycan array binding signal (z-score),[28],5.09
same,glycan array binding signal (z-score),[29],-0.391
same,glycan array binding signal (z-score),[30],-0.392
same,glycan array binding signal (z-score),[31],-0.39
same,glycan array binding signal (z-score),[32],0.204
same,glycan array binding signal (z-score),[33],2.57
same,glycan array binding signal (z-score),[34],2.71
same,glycan array binding signal (z-score),[35],1.32
same,glycan array binding signal (z-score),[36],2.16
same,glycan array binding signal (z-score),[37],4.33
same,glycan array binding signal (z-score),[38],3.3
same,glycan array binding signal (z-score),[39],4.1
same,glycan array binding signal (z-score),[40],-0.389
same,glycan array binding signal (z-score),[41],-0.378
same,glycan array binding signal (z-score),[42],-0.382
same,glycan array binding signal (z-score),Fuc(a1-3)GlcNAc,-0.358
same,glycan array binding signal (z-score),[43],-0.387
same,glycan array binding signal (z-score),[44],-0.382
same,glycan array binding signal (z-score),[45],-0.387
same,glycan array binding signal (z-score),[46],-0.385
same,glycan array binding signal (z-score),[47],-0.379
same,glycan array binding signal (z-score),[48],-0.382
same,glycan array binding signal (z-score),[49],-0.382
same,glycan array binding signal (z-score),[50],-0.389
same,glycan array binding signal (z-score),[51],-0.391

# Reference: the supplement of paper PMC8728848
